Experimental data as given in paper PMC4336329 (PLoS ONE, 2015).
Out of some 310,000 compounds screened, about 14,000 (4.5%) showed an effect of 50% or more. Effects have a minus sign here. The list shows a part of the results.

What follows are compounds tested against human ether-à-go-go-related gene (hERG) potassium channel (human, UniProt Q12809) (assay: primary screen, population patch clamp on CHO cells stably expressing hERG).
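Further: peak tail current of the secondary pulse compared with the same well before compound.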

Sequence of human ether-à-go-go-related gene (hERG) potassium channel (Q12809 whole entry, looked up): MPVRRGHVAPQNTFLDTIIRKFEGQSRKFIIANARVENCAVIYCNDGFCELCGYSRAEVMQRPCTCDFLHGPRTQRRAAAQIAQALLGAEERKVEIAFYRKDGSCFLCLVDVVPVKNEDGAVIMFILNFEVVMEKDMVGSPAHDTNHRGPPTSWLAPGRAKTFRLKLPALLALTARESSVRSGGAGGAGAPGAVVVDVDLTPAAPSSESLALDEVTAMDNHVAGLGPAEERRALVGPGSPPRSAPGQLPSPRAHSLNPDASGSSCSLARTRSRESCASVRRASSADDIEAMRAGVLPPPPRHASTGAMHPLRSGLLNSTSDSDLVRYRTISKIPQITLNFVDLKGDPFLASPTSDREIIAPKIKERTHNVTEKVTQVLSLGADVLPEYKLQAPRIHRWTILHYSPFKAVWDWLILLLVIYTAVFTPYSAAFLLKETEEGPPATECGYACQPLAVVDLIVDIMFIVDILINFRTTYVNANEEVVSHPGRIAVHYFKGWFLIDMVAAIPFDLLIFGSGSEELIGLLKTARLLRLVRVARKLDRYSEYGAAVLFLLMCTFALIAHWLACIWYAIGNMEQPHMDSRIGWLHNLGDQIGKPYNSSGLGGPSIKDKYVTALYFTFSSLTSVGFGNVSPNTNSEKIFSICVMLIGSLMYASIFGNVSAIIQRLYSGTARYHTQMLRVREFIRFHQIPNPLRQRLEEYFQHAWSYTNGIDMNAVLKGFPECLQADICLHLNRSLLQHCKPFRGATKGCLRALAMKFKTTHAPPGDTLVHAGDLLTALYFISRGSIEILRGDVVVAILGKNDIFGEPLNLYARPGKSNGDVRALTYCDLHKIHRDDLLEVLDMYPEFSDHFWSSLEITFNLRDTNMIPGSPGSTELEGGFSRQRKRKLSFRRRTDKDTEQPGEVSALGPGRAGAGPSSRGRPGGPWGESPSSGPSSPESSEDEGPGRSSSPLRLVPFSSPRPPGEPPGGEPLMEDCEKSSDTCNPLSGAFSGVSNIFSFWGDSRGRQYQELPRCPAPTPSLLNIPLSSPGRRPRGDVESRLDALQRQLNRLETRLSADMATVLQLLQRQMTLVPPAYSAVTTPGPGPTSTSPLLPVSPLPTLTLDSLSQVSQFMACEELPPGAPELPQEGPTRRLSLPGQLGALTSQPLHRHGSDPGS

Compound	hERG current change (%, negative = inhibition) at 10uM [%]
CC1=CCC(C(=O)O)(C(=O)N/N=C/c2cccs2)C(c2ccc(F)cc2)C1 (centres unmarked)	0.214
COc1ccc(Br)cc1CN1CCN(CCO)CC1	-0.9
CC1Cc2ccccc2N1C(=O)CSc1ncc(-c2ccc(F)cc2)n1C (centres unmarked)	-45.7
O=C(O)CC/C(=C\c1cc([N+](=O)[O-])ccc1Cl)c1nc2ccccc2s1	-1.22
CCCCn1c(-c2csc3c2CCC(C)C3)n[nH]c1=S (centres unmarked)	6.79
Cc1cc(C)cc(OCC(=O)N/N=C/c2ccncc2)c1	-5.51
Cc1ccc(OCC(=O)NCc2cccnc2)cc1	6.98
Cc1c(-n2c(CN3C(=O)c4ccccc4C3=O)nc3ccccc3c2=O)c(=O)n(-c2ccccc2)n1C	3.43
Cn1c(=O)cc(SCC(=O)N2CCC3(CC2)OCCO3)c2ccccc21	-1.64
Cc1ccc2c(c1)=C/C(=C\c1c(O)[nH]c(=O)[nH]c1=O)C(=O)N=2	-20
CCn1c(/C=C/N(C(C)=O)c2ccccc2)[n+](CC)c2ccc(Cl)cc21.[I-]	2.3
CC(C)Oc1cccc(-c2cc(C(=O)N3CCN(S(C)(=O)=O)CC3)c3ccccc3n2)c1	-34.1
CCCCSC(=S)NC1CCS(=O)(=O)C1 (centres unmarked)	-6.03
CCOC(=O)Nc1ccc(S(=O)(=O)Nc2onc(C)c2C)cc1	-1.17
Cc1ccccc1Cn1ccc(NC(=O)c2nn3cccnc3c2Cl)n1	7.31
COc1ccccc1NC(=O)CCN1CCCCCC1.Cl	0.0165
COn1c(=O)c(-c2ccc(F)cc2)[n+]([O-])c2ccccc21	17.4
CSCCC(NC(=O)c1ccccc1Cl)C(=O)N1CCCCCCC1 (centres unmarked)	-6.4
CCCS(=O)(=O)c1ccc(COC(=O)c2ccc(NC(C)=O)cc2)cc1	17.3
COc1ccc(C(c2nnnn2CC2CCCO2)N2CCC(C(N)=O)CC2)cc1 (centres unmarked)	9.42
COc1ccccc1C(=O)CSc1n[nH]c(N)n1	21.9
COc1cc(C(CC(=O)N2CCN(c3ccccc3)CC2)c2c(OC)cc(OC)c3ccc(=O)oc23)cc(OC)c1OC (centres unmarked)	-29
CCn1c(-c2csc3c2CCCC3)n[nH]c1=S	16.9

Compound	hERG current change (%, negative = inhibition) at 10uM [%]
O=C1CSC(c2ccccn2)N1c1ccccc1F (centres unmarked)	22.6
Cc1ccc(-c2ccc(CCC(=O)O)o2)cc1	14.5
Cc1cc(C)c(S(=O)(=O)N2CCCCC2CCNC(=O)C(=O)NCc2cccnc2)c(C)c1 (centres unmarked)	-41.7
CCOC(=O)c1ccccc1NC(=O)CC1SC(=NC)N(C)C1=O (centres unmarked)	3.8
CCCN(CC(=O)Nc1ccccc1C)C(=O)/C=C/c1ccc(S(=O)(=O)N2CCCCCC2)cc1	-5.42
Cn1c(-c2ccccc2)c(/C=N/NC(=O)c2cccnc2)c2ccccc21	18.5
Cc1onc(-c2c(Cl)cccc2Cl)c1C(O)c1ccc(F)cc1 (centres unmarked)	-30.4
CSc1cnc2c(N)nc(N(C)C)nc2n1	2.74
Cc1cc(-c2n[nH]c(=S)n2/N=C/c2c[nH]c3ccccc23)n[nH]1	16.3
COc1ccc(-c2nc(CN3CCN(C(=O)c4ccco4)CC3)c(C)o2)cc1OC	1.8
COc1ccc(CNC(=O)c2cc3c(C)nc4ccccc4c3o2)c(OC)c1	-8.06
Cc1cc(NC(=O)CCC(=O)N(CC(=O)NCC2CCCO2)c2ccc3c(c2)OCCO3)no1 (centres unmarked)	12
CCOC(=O)[C@H]1[C@H]2COc3cc(OC)ccc3[C@@H]2N2C(=O)CN(Cc3ccc(C)cc3)C(=O)[C@@]12C	-19.8
CCOc1ccc(CCNC(=O)C2CCN(S(=O)(=O)N3CC(C)CC(C)C3)CC2)cc1OCC (centres unmarked)	20.7
CN(CC1COc2ccccc2O1)c1nc(-c2cccnc2)nc2ccccc12 (centres unmarked)	-17.5
CC1CC(C)CN(C(=O)CCS(=O)(=O)c2ccc3c(c2)NC(=O)CS3)C1 (centres unmarked)	5.23
CCCC[C@@H]1CNC(=O)C(=O)N1CCc1cccc2ccccc12	-1.09
CC(C)c1ccc(-n2c(O)c(/C=N/NC(=O)c3ccncc3)c(=O)[nH]c2=O)cc1	12.6
Cc1ccc(Sc2ccc(NC(=O)CCl)cc2)cc1C	5.84
Cc1ccccc1C1C(=O)c2ccccc2C1=O	20.1
Cc1ccc(C(=O)NCCNC(=O)c2cnccn2)cc1	7.28
Cc1cnn(C(=O)c2cc(-c3ccccn3)nc3ccc(Cl)cc23)c1	8.52
CC(C)(C)c1ccc(S(=O)(=O)NCC2CCCO2)cc1 (centres unmarked)	1.6

Compound	hERG current change (%, negative = inhibition) at 10uM [%]
C=CCn1c(Cc2nc3ccc(Cl)cc3[nH]2)n[nH]c1=S	22.9
Cc1ccc(NC(=O)COC(=O)c2ccc(Cl)nc2)cc1S(=O)(=O)N1CCCCC1	15.2
O=C(CN(C1CCCCC1)S(=O)(=O)c1ccccc1)NCc1cccnc1	-30
COc1ccc(Cl)cc1NC(=O)CSc1nnc(-c2ccncc2)n1CC1CCCO1 (centres unmarked)	-28.2
Cc1ccc2c(c1)C(c1ccccc1)N(C(=O)c1cc3ccccc3oc1=O)CC(=O)N2 (centres unmarked)	-65.1
CC(=O)N1CCCSC1=Nc1ccccc1	12.8
CC(NC(=O)COC(=O)CCc1nc2ccccc2c(=O)[nH]1)c1ccccc1 (centres unmarked)	-19
Cc1ccc(-c2cnn3c(N4CCOCC4)cc(C)nc23)cc1	0.229
CCCCC(=O)OCC(=O)Nc1ccc(SC(F)F)cc1	4.23
COC(=O)c1sc2ccccc2c1-n1cccc1C(=O)C(=O)Nc1ccc(F)cc1	-5.86
COc1ccc(Nc2nc(Cl)nc(NCc3ccco3)n2)cc1	9.37
Cl.NCCn1c(-c2ccccc2)cc(C(=O)O)c1-c1ccccc1F	1.09
CCOc1ccc2ncc(S(=O)(=O)c3ccc(C)cc3)c(N3CCC4(CC3)OCCO4)c2c1	-19.4
CCOc1ccc(C(=O)Nc2ccc(-c3nc4ccccc4[nH]3)cc2)cc1[N+](=O)[O-]	5.46
COC(=O)c1cc2occc2n1Cc1nc(-c2ccccc2C)oc1C	11.6
COC(=O)c1ccc(NC(=S)NC2c3ccccc3CC2O)cc1 (centres unmarked)	14.9
O=C(NCN1CCc2ccccc2C1)c1cnccn1	-5.36
CC1(C)CC(=O)C(C=NCCN2CCN(CC(=O)Nc3ccc(F)cc3)CC2)=C(O)C1	-4.49
O=C1CC(c2ccc(F)cc2)CC(O)=C1C=NCCN1CCN(C(=O)Nc2ccccc2)CC1 (centres unmarked)	-67.8
O=C(Cn1nnc2ccccc21)N/N=C\c1cccs1	1.19
c1ccc(CNc2nc3ccccc3n3cnnc23)nc1	0.696
CCOC(=O)c1c[nH]c2c(C)ccc(Cl)c2c1=O	20.9
CC1CCN(S(=O)(=O)c2ccc(C(=O)Nc3nnc(-c4ccccn4)o3)cc2)CC1	14.8

Compound	hERG current change (%, negative = inhibition) at 10uM [%]
CN1C(=O)c2ccc(NC(=O)c3c(F)c(F)c(F)c(F)c3F)cc2C1=O	18.3
COCCN1C=C2C(=O)C(C)(OC(=O)C3CCCC3)C(=O)C=C2C=C1c1ccsc1 (centres unmarked)	-6.22
CCOC(=O)c1[nH]c(C)c(C)c1C	16
O=C1CN(C(=O)COc2ccc(Br)cc2F)c2ccccc2N1	-15.1
CCN(CC)c1ccc(N=Cc2c(O)n(Cc3ccccc3)c(=O)[nH]c2=O)cc1 [14738079]	18.5
Cc1ccccc1C(=O)NC1CCN(C(=O)NC2CCCCC2)CC1	7.15
COc1ccc(CC(=O)NC(C)CCc2ccccc2)cc1OC (centres unmarked)	8.96
COc1ccc(CN2CCN(C(=O)c3ccco3)CC2)c(OC)c1OC	9.29
CCOC(=O)CN1C(=O)N[C@@H](c2cccs2)C(C(C)=O)=C1C	-1.5
CCN1CCN(C(=O)c2ccc3c(c2)S(=O)(=O)c2ccccc2C3=O)CC1.Cl	-1.55
COc1cccc(-c2nc(CS(=O)(=O)CC(=O)NCCCOC(C)C)c(C)o2)c1	-1.26
Cc1nnc(SCC(=O)Nc2ccccc2)n1CCc1ccccc1	-33
CSc1ccc(CNc2nc3ccccc3n3cnnc23)cc1	4.84
Cc1occc1C(=O)NNC(=O)c1ccc(F)cc1	-3.25
COC(=O)c1ccc(-c2nc3cc(N)ccc3o2)cc1	12.7
Cc1nc(NC(=O)c2cc3c(s2)CCCCC3)sc1C(=O)N(C)C	-21.8
Cc1nn(Cc2ccccc2Cl)c(C)c1NC(=O)CSc1n[nH]c(C)c1[N+](=O)[O-]	14.8
Cc1ccc(S(=O)(=O)c2nc(S(C)(=O)=O)sc2N2CCCCCC2)cc1	-14.8
CC1(C)CC(NC(=O)C2CCCCC2C(=O)O)CC(C)(C)N1 (centres unmarked)	17.6
CCn1c(C(=O)N2CCc3ccccc3C2)cc2sccc21	-3.24
